# Laboratory results from PubChem BioAssay (NCATS).
# Several values for one entry are separate records, joined by “and”; a condition that tells them apart may be missing. Identical values can stand only once. The inconclusive results got no clear call from the source; some entries with a clear call stand among them for comparison. For some assays here: A potency beside an inconclusive call is a rough fit, not a confirmed value. Activity calls are given as the source filed them. Unless noted, the call rests on the fitted dose curve; in most records, active means well fitted curve in the direction sought with a large enough effect; inconclusive means small, poorly fitted or top-dose-only effect, or another doubt; inactive means no such curve, though single readings can be large; an effect the other way counts as inactive or inconclusive.
# Experiments:
# [1] = qHTS to identify inhibitors of the type 1 interferon - major histocompatibility complex class I in skeletal muscle: primary screen against the NCATS Mechanism Interrogation Plate v5.0 (MIPE) Libary (AID 1347411); details: iHSKM cells + IFN-b, HiBiT-tagged MHC-I luminescence, 24 h; activity change, negative = inhibition: at 45.8 µM (top of the series); further: nearly all actives have a fitted effect of over 65% in size;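 on activity change, negative = inhibition: plate controls were vehicle for no effect and reference inhibitor for full effect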
# Summary of the method: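 Seed engineered human myoblasts (HLA-B HiBit) in medium without dexamethasone containing 4 ng/ml IFN-beta; after 1 hr add compound titrations (top 46 uM final). Incubate 24 hrs at 37 C, lyse 10 min with HiBiT reagent, read luminescence.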
# [2] = Primary qHTS for inhibitors of nuclear receptor binding SET domain protein 2 (NSD2) in an RCH-ACV wild type WT cells (2C) (AID 1645877); further: nearly all actives have a fitted effect of over 70% in size
# [3] = qHTS assay to identify inhibitors of the type 1 interferon - major histocompatibility complex class I in skeletal muscle: Counter screen cell viability and HiBit confirmation (AID 1347412); details: iHSKM muscle cells + IFN-b, HiBiT or CellTiter-Glo, 24 h; for activity change, negative = inhibition: at 45.9 µM (top of the series); on activity change, negative = inhibition: on the % scale 0 is the no-effect control and ±100 the full control effect; on all read-outs here: nearly all actives have a fitted effect of over 60% in size
# Summary of the method: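 After 24 h with human IFN-beta (4 ng/ml) and compound titrations (top 46 uM final, 1:3, 12 points), HLA-B HiBit myoblasts were lysed for either Nano-Glo HiBiT luminescence or CellTiter Glo viability on paired plates.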
# [4] = target: Cytochrome P450 2D6 (Homo sapiens) (UniProt P10635); assay: Cytochrome P450 family 2 subfamily D member 6 (CYP2D6) small molecule antagonists: luciferase biochemical (cell-free) qHTS assay (AID 1645840; active means well fitted curve in the direction sought with a large enough effect in the repeat runs; inconclusive means weak or mixed curves; inactive means no such curve, though single readings can be large; an effect the other way counts as inactive or inconclusive; further: nearly all actives have a fitted effect of over 55% in size; on activity change, negative = inhibition: on the % scale 0 is the no-effect control and ±100 the full control effect)
# Sequence of UniProt P10635 (P10635 whole entry, looked up): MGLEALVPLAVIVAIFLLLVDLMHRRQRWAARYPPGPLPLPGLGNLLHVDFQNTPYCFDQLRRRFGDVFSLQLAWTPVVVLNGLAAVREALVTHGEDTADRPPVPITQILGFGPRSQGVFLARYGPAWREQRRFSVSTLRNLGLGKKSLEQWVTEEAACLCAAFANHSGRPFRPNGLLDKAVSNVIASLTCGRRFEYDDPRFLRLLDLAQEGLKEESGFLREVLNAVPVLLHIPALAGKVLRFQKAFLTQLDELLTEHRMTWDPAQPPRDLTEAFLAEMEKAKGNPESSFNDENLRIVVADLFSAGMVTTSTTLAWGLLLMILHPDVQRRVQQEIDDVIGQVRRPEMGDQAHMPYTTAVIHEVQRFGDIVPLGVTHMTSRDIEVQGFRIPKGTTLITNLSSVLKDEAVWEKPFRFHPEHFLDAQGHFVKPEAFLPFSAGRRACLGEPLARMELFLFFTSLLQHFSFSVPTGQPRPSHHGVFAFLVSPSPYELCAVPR
# Summary of the method: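 P450-Glo CYP2D6 system: proluciferin substrate converted by enzyme to luciferin, read by luminescence proportional to activity. Enzyme-substrate mix with compound 10 min at room temperature, then NADPH regeneration 1 h before detection reagent.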
# [5] = target: Cytochrome P450 2C9 (Homo sapiens) (UniProt P11712); assay: Cytochrome P450 family 2 subfamily C member 9 (CYP2C9) small molecule antagonists: luciferase biochemical (cell-free) qHTS assay (AID 1645842; active means well fitted curve in the direction sought with a large enough effect in the repeat runs; inconclusive means weak or mixed curves; inactive means no such curve, though single readings can be large; an effect the other way counts as inactive or inconclusive; further: nearly all actives have a fitted effect of over 55% in size; on activity change, negative = inhibition: on the % scale 0 is the no-effect control and ±100 the full control effect)
# Sequence of UniProt P11712 (P11712 whole entry, looked up): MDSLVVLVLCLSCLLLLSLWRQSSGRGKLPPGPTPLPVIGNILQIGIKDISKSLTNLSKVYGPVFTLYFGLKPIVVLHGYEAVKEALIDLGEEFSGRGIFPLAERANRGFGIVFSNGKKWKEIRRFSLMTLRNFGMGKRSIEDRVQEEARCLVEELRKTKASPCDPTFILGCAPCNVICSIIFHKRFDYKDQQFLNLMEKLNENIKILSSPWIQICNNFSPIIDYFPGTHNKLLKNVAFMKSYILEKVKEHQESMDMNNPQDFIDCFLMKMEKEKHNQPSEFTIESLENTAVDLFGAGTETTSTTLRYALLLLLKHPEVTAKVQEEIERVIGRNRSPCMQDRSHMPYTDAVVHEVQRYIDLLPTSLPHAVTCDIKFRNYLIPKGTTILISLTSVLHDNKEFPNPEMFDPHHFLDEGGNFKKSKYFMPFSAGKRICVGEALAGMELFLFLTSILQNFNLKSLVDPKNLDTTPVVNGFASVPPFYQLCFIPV
# Summary of the method: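 P450-Glo CYP2C9 system: proluciferin substrate with enzyme in mix containing 0.4% BSA, 10 min at room temperature, then NADPH regeneration solution added and incubated 1 h at 37C. Detection reagent stopped reaction; luminescence read after 20 min as RLU.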
# [6] = target: Phospholipid hydroperoxide glutathione peroxidase GPX4 (Homo sapiens) (UniProt P36969); assay: Primary qHTS Assay for Inhibitors of Recombinant Selenoprotein Glutathione Peroxidase 4 (GPX4) (AID 1845192); further: nearly all actives have a fitted effect of over 65% in size; on activity change, negative = inhibition: on the % scale 0 is the no-effect control and ±100 the full control effect
# Sequence of UniProt P36969 (P36969 whole entry, looked up): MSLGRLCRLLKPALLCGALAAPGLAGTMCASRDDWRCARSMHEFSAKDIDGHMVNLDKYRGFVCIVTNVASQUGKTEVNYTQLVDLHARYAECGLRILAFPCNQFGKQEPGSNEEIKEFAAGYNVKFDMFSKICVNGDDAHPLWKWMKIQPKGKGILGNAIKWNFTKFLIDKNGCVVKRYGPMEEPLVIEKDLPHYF
# Summary of the method: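 Steps: GPX4 plus compound, 30 min RT; add GR/GSH/NADPH master mix; start with cumene hydroperoxide; read 340/450 nm fluorescence at 0 and 15 min. Finals were 200 nM GPX4, 1 mM GSH, 0.5 mM CHP, 0.5 mM NADPH, 100 nM GR.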
# [7] = target: Cytochrome P450 3A4 (Homo sapiens) (UniProt P08684); assay: Cytochrome P450 family 3 subfamily A member 4 (CYP3A4) small molecule antagonists: luciferase qHTS assay (AID 1645841; active means well fitted curve in the direction sought with a large enough effect in the repeat runs; inconclusive means weak or mixed curves; inactive means no such curve, though single readings can be large; an effect the other way counts as inactive or inconclusive; further: nearly all actives have a fitted effect of over 45% in size)
# Sequence of UniProt P08684 (P08684 whole entry, looked up): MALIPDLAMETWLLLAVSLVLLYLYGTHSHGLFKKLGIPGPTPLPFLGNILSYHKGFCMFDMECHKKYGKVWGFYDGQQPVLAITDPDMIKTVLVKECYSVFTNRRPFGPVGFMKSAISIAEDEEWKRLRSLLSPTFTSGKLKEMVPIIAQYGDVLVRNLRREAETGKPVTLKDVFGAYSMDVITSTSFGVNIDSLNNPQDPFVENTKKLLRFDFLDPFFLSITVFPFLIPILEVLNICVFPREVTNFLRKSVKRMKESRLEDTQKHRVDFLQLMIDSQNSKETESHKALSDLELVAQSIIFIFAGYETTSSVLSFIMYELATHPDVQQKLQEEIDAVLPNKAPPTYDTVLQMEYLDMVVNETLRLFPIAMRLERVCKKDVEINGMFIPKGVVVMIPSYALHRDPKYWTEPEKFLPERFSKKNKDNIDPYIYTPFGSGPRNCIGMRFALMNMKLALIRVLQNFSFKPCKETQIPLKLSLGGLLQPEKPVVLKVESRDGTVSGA
# Summary of the method: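 P450-Glo CYP3A4 enzyme with proluciferin substrate preincubated 10 min with compound at room temperature, then NADPH regeneration 1 h. Luciferin detection reagent added for 20 min; luminescence recorded. Ketoconazole positive control.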
# [8] = Primary qHTS for small molecule stabilizers of the endoplasmic reticulum resident proteome: Secreted ER Calcium Modulated Protein (SERCaMP) assay (AID 1508630); details: SH-SY5Y GLuc-SERCaMP (Gaussia luciferase released on ER calcium loss) secretion, thapsigargin, luminescence; activity change, negative = inhibition: at 38.4 µM (top of the series) unless noted
# Summary of the method: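 The SH-SY5Y reporter protocol was run at 3 concentrations up to 38.3 uM (primary) or 11 concentrations (follow-up): 16 h compound, 100 nM thapsigargin for 4 h, then extracellular luciferase luminescence.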
# [9] = Primary qHTS for inhibitors of nuclear receptor binding SET domain protein 2 (NSD2) in an isogenic RCH-ACV NSD2 p.E1099K mutant (9B) (AID 1645876); further: nearly all actives have a fitted effect of over 70% in size
# [10] = target: Glutathione peroxidase 1 (Homo sapiens) (UniProt P07203); assay: Primary qHTS Assay for Inhibitors of Recombinant Selenoprotein Glutathione Peroxidase 1 (GPX1) (AID 1845191); further: nearly all actives have a fitted effect of over 65% in size
# Sequence of UniProt P07203 (P07203 whole entry, looked up): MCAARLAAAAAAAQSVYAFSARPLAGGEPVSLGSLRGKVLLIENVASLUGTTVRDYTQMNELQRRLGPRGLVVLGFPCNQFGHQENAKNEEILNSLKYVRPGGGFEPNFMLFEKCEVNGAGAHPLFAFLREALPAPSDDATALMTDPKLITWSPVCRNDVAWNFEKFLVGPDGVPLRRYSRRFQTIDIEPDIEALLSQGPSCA
# Summary of the method: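 GR-coupled readout: NADPH consumption tracked by fluorescence, ex 340/em 450 nm, at t=0 and after 15 min at RT. Final mix 10 nM GPX1, 1 mM GSH, 0.5 mM CHP, 0.5 mM NADPH, 100 nM GR, 0.01% BSA, following 30 min enzyme–compound preincubation.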
# Potency means the concentration at half of the fitted maximal effect; tags describe the fitted curve by direction and shape.
smiles,measurement,setting,value
COC1=C2C[C@H](C)C[C@H](OC)[C@H](O)[C@@H](C)/C=C(/C)[C@H](OC(N)=O)[C@@H](OC)/C=C\C=C(\C)C(=O)NC(=CC1=O)C2=O,Potency,[1],active: 2.94 µM
same,Potency,[2],inactive
same,Potency,[3]; Viability,"inconclusive: 0.0883 µM [cytotoxic, full curve]"
CN(Cc1ccc(/C=C/C(=O)NO)cc1)CC12CC3CC(CC(C3)C1)C2,Potency,[1],active: 0.33 µM
same,Potency,[2],active: 0.209 µM
same,"activity change, negative = inhibition",[3]; Viability,inactive: -18.3%
COc1cc(C(=O)O)ccc1NC(=O)[C@@H]1N[C@@H](CC(C)(C)C)[C@](C#N)(c2ccc(Cl)cc2F)[C@H]1c1cccc(Cl)c1F,Potency,[1],"inconclusive: 23.4 µM [inhibitor, partial curve, poor fit]"
same,Potency,[4],inactive
same,Potency,[5],"inconclusive: 21.3 µM [inhibitor, partial curve, poor fit]"
same,Potency,[2],"inconclusive: 0.105 µM [inhibitor, full curve, poor fit]"
same,Potency,[6],"inconclusive: 2.02 µM [inhibitor, full curve]"
same,"activity change, negative = inhibition",[3]; HiBiT,inactive: -14.1%
C=C1C(=O)O[C@@H]2[C@H]3O[C@]3(C)CC/C=C(\C)CC[C@@H]12,Potency,[1],"inconclusive: 14.7 µM [inhibitor, partial curve, poor fit]"
same,Potency,[7],"inconclusive: 23.9 µM [falling, single point]"
same,"activity change, negative = inhibition",[3]; Viability,inactive: 0.032%
COc1ccc(S(=O)(=O)N(CCO)c2ccccc2CN(C)C/C=C/c2ccc(Cl)cc2)cc1,Potency,[1],inactive
same,Potency,[8],"inconclusive: 7.94 µM [inhibitor, partial curve, poor fit]"
COc1cccc2c1C(=O)c1c(O)c3c(c(O)c1C2=O)C[C@@](O)(/C(CO)=N/NC(=O)CCCCCN1C(=O)C=CC1=O)C[C@@H]3O[C@H]1C[C@H](N)[C@H](O)[C@H](C)O1,Potency,[1],active: 3.3 µM
same,Potency,[9],active: 0.209 µM
same,"activity change, negative = inhibition",[3]; Viability,inactive: -0.403%
Cc1ccc(NC(=O)c2ccc3c(c2)OCCO3)cc1NC(=O)c1ccc2nc(OCCN3CCCC3)ccc2c1,Potency,[1],active: 0.286 µM
same,Potency,[2],active: 0.0456 µM
same,Potency,[3]; HiBiT,active: 0.557 µM
Cc1cc(C)c(CNC(=O)c2cc(-c3ccc(N4CCN(C)CC4)nc3)cc3c2c(C)cn3C(C)C)c(=O)[nH]1,Potency,[1],"inconclusive: 14.7 µM [inhibitor, partial curve, poor fit]"
same,Potency,[2],"inconclusive: 11.8 µM [inhibitor, partial curve, poor fit]"
same,Potency,[6],"active: 12.8 µM and inconclusive: 12.8 µM [inhibitor, partial curve]"
same,"activity change, negative = inhibition",[3]; HiBiT,inactive: 0.953%
NS(=O)(=O)c1ccc(Cc2c(-c3cccc(-c4ccccc4)c3)nn(-c3nc(C(=O)O)cs3)c2CC2CC2)cc1,Potency,[1],inactive
same,Potency,[4],"inconclusive: 23.9 µM [inhibitor, single point]"
same,Potency,[9],"inconclusive: 4.68 µM [inhibitor, full curve]"
same,Potency,[6],active: 6.4 µM
CO[C@@H]1[C@@H](O)[C@H](O)[C@@H](n2c3c(Cl)cccc3c3c4c(c5c6cccc(Cl)c6[nH]c5c32)C(=O)NC4=O)O[C@H]1CO,Potency,[1],"inconclusive: 6.58 µM [inhibitor, full curve]"
same,Potency,[6],inactive
same,Potency,[3]; HiBiT,active: 4.97 µM
COc1ccc2c(c1)[C@]1(C[C@H]1c1ccc3c(/C=C/c4ccc(CN5C[C@@H](C)O[C@@H](C)C5)cc4)n[nH]c3c1)C(=O)N2,Potency,[1],"inconclusive: 16.5 µM [inhibitor, partial curve]"
same,Potency,[9],active: 1.32 µM
O=C(NO)c1cnc(NC2(c3ccccc3)CC2)nc1,Potency,[1],"inconclusive: 11.7 µM [inhibitor, partial curve]"
same,Potency,[9],active: 7.42 µM
Cn1cc(/C=C2\C(=O)Nc3cccnc32)c2ccccc21,Potency,[1],active: 29.4 µM
same,Potency,[4],"inconclusive: 23.9 µM [inhibitor, single point]"
same,Potency,[5],inactive
same,Potency,[9],active: 5.25 µM
O=c1cc(N2CCOCC2)oc2c(-c3ccc4c(c3)OCCO4)csc12,Potency,[1],"inconclusive: 4.15 µM [inhibitor, full curve]"
same,Potency,[9],active: 0.59 µM
same,Potency,[2],active: 0.59 µM
same,Potency,[3]; Viability,"inconclusive: 12.5 µM [cytotoxic, partial curve]"
CN1CCN(c2ccc(Nc3ncc4cc(C#N)c(=O)n(C5CCCC5)c4n3)cc2)CC1,Potency,[1],"inconclusive: 1.65 µM [inhibitor, full curve]"
same,Potency,[9],active: 0.59 µM
CNC(=O)Cn1cc(-c2ccc3c(c2)C(F)CC32NC(=O)N(CC(=O)N(Cc3ccc(F)cc3)C(C)C(F)(F)F)C2=O)cn1 (configuration not stated),Potency,[1],inactive
same,Potency,[9],active: 0.0833 µM
COc1ccc(-c2ccc3c(N4CCOC[C@@H]4C)nc(N4CCOC[C@@H]4C)nc3n2)cc1CO,Potency,[1],"inconclusive: 0.147 µM [inhibitor, full curve]"
same,Potency,[10],active: 18.3 µM
same,Potency,[6],active: 16.1 µM
same,Potency,[3]; HiBiT,"inconclusive: 0.111 µM [inhibitor, full curve]"
same,Potency,[3]; Viability,"inconclusive: 0.279 µM [cytotoxic, full curve]"
NC(=O)c1cnc2[nH]ccc2c1NC1C2CC3C[C@H]1CC(O)(C3)C2 (some centres not stated),Potency,[1],"inconclusive: 2.62 µM [inhibitor, full curve]"
same,Potency,[9],active: 9.34 µM
same,Potency,[3]; HiBiT,active: 2.22 µM
COC1CCC(N2C(=O)CNc3ncc(-c4ccc(C(C)(C)O)nc4)nc32)CC1 (configuration not stated),Potency,[1],active: 13.1 µM
same,Potency,[10],active: 4.59 µM
same,Potency,[6],active: 3.21 µM
same,Potency,[3]; HiBiT,active: 11.1 µM
